# “And” between values parts separate entries of the source, which are not always exact repeats. Equal entries are not always repeated. Inconclusive means that the source gave no clear call. Such entries were picked first, then a sample of the others. Potencies beside an inconclusive call are fits to weak or partial responses and may not hold up. The source made the active and inactive calls. The call rests on the fitted dose curve; in most records, active means well fitted inhibition curve with a large enough effect in the repeat runs; inconclusive means weak or mixed curves, or effect the other way; inactive means no such curve, though single readings can be large or run the other way.
# Target: Nuclear receptor ROR-gamma (Homo sapiens) (UniProt P51449)
# Experiment: qHTS assay to identify small molecule antagonists of the retinoid-related orphan receptor gamma (ROR-gamma) signaling pathway (AID 1159521; further: nearly all actives have a fitted effect of over 50% in size; on activity change, negative = inhibition: top concentration of the series differs between compounds)
# Settings: Tet-on RORgamma CHO cells, RORE-luciferase, 16 h; series mostly up to 92.4 µM
# From the text: U.S. Tox21 Program National Center for Advancing Translational Sciences [NCATS] NIH Chemical Genomics Center [NCGC] U.S. Environmental Protection Agency [EPA] National Institutes of Environmental Health Sciences [NIEHS] National Toxicology Program [NTP] U.S. Food and Drug Administration [FDA] Tox21 Assay Overview: Nuclear steroid hormone receptors are involved in many biological processes including inflammatory responses, cell proliferation, and apoptosis. Environmental factors or compounds disrupting these nuclear receptor pathways and gene expression may promote susceptibility to immunotoxicants and autoimmune diseases. One important group of these expression factors are the retinoid-related orphan receptors. To assess compounds that may interfere with the retinoid-related orphan receptor gamma (ROR-gamma) transcription factor, a cell-based luciferase assay was used. The CHO cell-based assay utilizes a TET-inducible ROR expression factor and ROR response element-LUC reporter gene. Reporter gene activity was induced using Doxycycline Hyclate and measured after 16 hr incubation. Tet-on ROR gamma CHO cells were used to screen against the Tox21 10K compound library for ROR gamma antagonists by quantification of decreased reporter gene activity in terms of decreased luminescence.
# Tox21 Assay Protocol Summary: Tet-on ROR gamma CHO cells were dispensed at 1,000 cells in 4 uL of culture medium per well into white wall/solid bottom 1536-well plates using a Multidrop Combi (Thermo Scientific, Waltham, MA) dispenser. Following incubation at 37 C and 5% CO2 for 4 hr, 23 nL of compounds dissolved in DMSO, positive controls or DMSO only were transferred by a Pintool station (Kalypsys, San Diego, CA) and after 2 hr incubation at 37 C, one ul of 1 uM (final concentration) of Doxycycline Hyclate was added to all the wells by using a Flying Reagent Dispenser (FRD) (Aurora Discovery, San Diego, CA). After 16 hr incubation at 37 C and 5% CO2, 5 uL of ONE-Glo reagent (Promega Corporation, Madison, WI) was added to each assay plate using FRD. After 30 min incubation at room temperature, luminescence was quantified on a ViewLux plate reader (Perkin Elmer, Waltham, MA).
# On the % scale 0 is the no-effect control and ±100 the full control effect; potency means the concentration at half of the fitted maximal effect; tags describe the fitted curve by direction and shape.
Compound,Potency,"activity change, negative = inhibition"
CC1(C)CC/C(=C/c2ccc(Cl)cc2)C1(O)Cn1cncn1 (stereo not given),active: 24.2 µM,
CCc1ccc(C(=O)NN(C(=O)c2cc(C)cc(C)c2)C(C)(C)C)cc1,"inconclusive: 68.6 µM [inhibitor, single point]",
CCCCN(CCCC)C(=S)[S-].CCCCN(CCCC)C(=S)[S-].[Zn+2],active: 13.7 µM,
CC(=O)c1cc2c(cc1C)C(C)(C)C(C)CC2(C)C (stereo not given),"inconclusive: 61.1 µM [inhibitor, single point]",
CCN(CC)c1c([N+](=O)[O-])cc(C(F)(F)F)c(N)c1[N+](=O)[O-],active: 27.3 µM,
SCc1ccco1,inactive,
COP(=O)(OC)O/C(=C/Cl)c1cc(Cl)c(Cl)cc1Cl,inconclusive: 51.3 µM [inhibitor],
C[C@]12CC[C@H]3[C@@H](CCC4=CC(=O)CC[C@@H]43)[C@@H]1CC[C@@H]2OC(=O)CCc1ccco1,"inconclusive: 33.5 µM [inhibitor, partial curve, poor fit]",
c1ccc(N=NNc2ccccc2)cc1,inactive,
CC1=C2C[C@H]3[C@@H](CC=C4C[C@@H](O)CC[C@@]43C)[C@@H]2CC[C@]12O[C@@H]1C[C@H](C)CN[C@H]1[C@H]2C,active: 8.41 µM,
CNC,inactive,
CC(=O)NC1CCSC1=O (stereo not given),inactive,
C[C@]12C=CC(=O)C=C1CC[C@@H]1[C@@H]2CC[C@@]2(C)[C@H]1CC[C@]2(C)O,inactive,
Nc1ccc([N+](=O)[O-])cc1[N+](=O)[O-],"inconclusive: 47.3 µM [inhibitor, partial curve, poor fit]",
COP(=O)(OC)OC,"inconclusive: 34.7 µM [inhibitor, single point]",
CO[C@@H]1[C@H](OC(=O)NC(=O)CCl)CC[C@]2(CO2)[C@H]1[C@@]1(C)O[C@@H]1CC=C(C)C,inconclusive: 18.8 µM [inhibitor],
Oc1c(I)cc(I)cc1I,"inconclusive: 68.6 µM [inhibitor, single point]",
COP(=S)(OC)Oc1ccc(Sc2ccc(OP(=S)(OC)OC)cc2)cc1,"inconclusive: 68.6 µM [inhibitor, single point]",
ClCC1CO1 (stereo not given),inactive,
CCC(=O)C(CC(C)N(C)C)(c1ccccc1)c1ccccc1 (stereo not given),"inconclusive: 21.5 µM [inhibitor, full curve] and inconclusive: 20.8 µM [inhibitor, full curve]",

Compound,Potency,"activity change, negative = inhibition"
COc1cccc(C(=O)NN(C(=O)c2cc(C)cc(C)c2)C(C)(C)C)c1C,"inconclusive: 0.864 µM [inhibitor, full curve, poor fit]",
C=CC(=O)OC,"inconclusive: 0.0309 µM [inhibitor, full curve, poor fit]",
CNC(C)Cc1ccccc1OC (stereo not given),inactive,
O.O.O.O=C([O-])[C@H]([O-])[C@@H]([O-])C(=O)[O-].O=C([O-])[C@H]([O-])[C@@H]([O-])C(=O)[O-].[K+].[K+].[Sb+3].[Sb+3],active: 1.94 µM,
CCCCCCCCCCCCN=C(N)N,,inactive: -12% [at 3.27 µM]
Clc1ccc(C(OCCN2CCCCC2)c2ccccc2)cc1 (stereo not given),"inconclusive: 23.7 µM [inhibitor, partial curve]",
CCCCNC(=O)OCC#CI,"active: 24.2 µM and inconclusive: 68.6 µM [inhibitor, single point]",
ClCc1ccccc1CCl,active: 54.5 µM,
O=S(=O)(O)C(F)(F)C(F)(F)C(F)(F)C(F)(F)F,inactive,
Cc1cc(Cl)ccc1OCC(=O)O,"inconclusive: 0.216 µM [inhibitor, single point]",
C=CC[C@]1(O)CC[C@H]2[C@@H]3CCC4=CC(=O)CCC4=C3C=C[C@@]21C,active: 2.98 µM,
Cc1cc(C(F)(C(F)(F)F)C(F)(F)F)ccc1NC(=O)c1cccc(I)c1C(=O)NC(C)(C)CS(C)(=O)=O,"inconclusive: 54.8 µM [inhibitor, single point]",
CC(C)(C)C(O)(CCc1ccc(Cl)cc1)Cn1cncn1 (stereo not given),"inconclusive: 68.6 µM [inhibitor, single point]",
CNC(=O)Oc1ccc(N(C)C)c(C)c1,inactive,
C1CCNCC1,inactive,
C=C1CC[C@@]2(O)[C@H]3Cc4ccc(O)c5c4[C@@]2(CCN3CC2CC2)[C@H]1O5,inactive,
CCNc1nc(NC(C)(C)C)nc(SC)n1,"inconclusive: 67.7 µM [inhibitor, single point] and inconclusive: 61.1 µM [inhibitor, single point]",
COc1nn(CSP(=S)(OC)OC)c(=O)s1,"inconclusive: 2.17 µM [inhibitor, full curve, poor fit]",
[Cl][Sb]([Cl])[Cl],active: 5.45 µM,
CC(NC(C)(C)C)C(=O)c1cccc(Cl)c1 (stereo not given),"inconclusive: 26.6 µM [inhibitor, partial curve]",
